The text below walks through data of PMC4336329 (PLoS ONE, 2015).

About 2,200 (0.71%) of roughly 310,000 compounds showed an effect of 50% or more. Effects have a minus sign here. Some of the results follow.

This assay deals with human ether-à-go-go-related gene (hERG) potassium channel (human, UniProt Q12809). The assay is described as follows: primary screen, population patch clamp on CHO cells stably expressing hERG.
human ether-à-go-go-related gene (hERG) potassium channel, sequence (Q12809 whole entry, looked up): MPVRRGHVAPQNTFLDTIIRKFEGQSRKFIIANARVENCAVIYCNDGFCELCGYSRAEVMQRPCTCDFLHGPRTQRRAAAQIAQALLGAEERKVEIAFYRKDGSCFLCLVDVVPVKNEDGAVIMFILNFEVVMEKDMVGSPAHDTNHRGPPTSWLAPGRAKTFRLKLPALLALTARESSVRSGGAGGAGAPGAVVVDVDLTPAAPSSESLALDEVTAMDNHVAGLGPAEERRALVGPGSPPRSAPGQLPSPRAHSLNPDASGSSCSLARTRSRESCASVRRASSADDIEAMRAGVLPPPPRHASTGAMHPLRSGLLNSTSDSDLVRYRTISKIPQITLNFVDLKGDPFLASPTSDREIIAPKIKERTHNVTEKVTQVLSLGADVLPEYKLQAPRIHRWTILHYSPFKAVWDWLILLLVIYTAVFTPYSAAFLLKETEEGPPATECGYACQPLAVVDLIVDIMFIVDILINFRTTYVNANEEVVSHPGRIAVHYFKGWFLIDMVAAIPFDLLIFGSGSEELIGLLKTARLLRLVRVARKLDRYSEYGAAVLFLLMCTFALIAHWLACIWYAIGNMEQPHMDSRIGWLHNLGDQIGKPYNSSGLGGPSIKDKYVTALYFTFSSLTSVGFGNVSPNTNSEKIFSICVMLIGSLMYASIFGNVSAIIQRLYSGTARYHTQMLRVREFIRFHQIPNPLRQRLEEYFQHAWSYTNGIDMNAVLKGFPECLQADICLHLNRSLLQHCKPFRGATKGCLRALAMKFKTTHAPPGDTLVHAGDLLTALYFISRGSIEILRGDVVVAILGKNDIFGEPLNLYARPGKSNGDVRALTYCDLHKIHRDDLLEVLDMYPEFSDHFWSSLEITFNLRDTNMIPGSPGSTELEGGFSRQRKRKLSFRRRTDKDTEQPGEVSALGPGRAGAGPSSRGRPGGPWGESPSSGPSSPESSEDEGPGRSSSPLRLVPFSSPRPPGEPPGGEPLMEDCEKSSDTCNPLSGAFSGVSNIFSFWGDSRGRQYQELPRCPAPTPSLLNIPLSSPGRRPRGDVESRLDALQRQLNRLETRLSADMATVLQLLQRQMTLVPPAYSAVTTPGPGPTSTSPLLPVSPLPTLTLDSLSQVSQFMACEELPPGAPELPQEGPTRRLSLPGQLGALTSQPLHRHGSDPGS
`COc1ccc(C2CC2/C(=N/O)c2ccccn2)cc1` (stereo not drawn): the “hERG current change (%, negative = inhibition) at 1uM” value turned out to be 12.7%.
With `O=C(CNC(=O)c1ccncc1)N/N=C/c1cccc([N+](=O)[O-])c1`, the “hERG current change (%, negative = inhibition) at 1uM” value is given as 8.46%.
As for `Cc1cccc(C(=O)Nc2cccc(S(=O)(=O)NCc3ccco3)c2)c1`, the figure is 5.79%.
In the case of `Cc1noc(C)c1C(=O)N1CCC(CO)(Cc2ccccc2)CC1`, the “hERG current change (%, negative = inhibition) at 1uM” value is on record as 4.26%.
`COCCN(CCNC(=O)c1ccc(NC2=NC3CS(=O)(=O)CC3S2)cc1)Cc1ccco1` (stereo not drawn): the “hERG current change (%, negative = inhibition) at 1uM” value is reported as -4.24%.
As for `O=c1c2ccccc2nc(/C=C\c2ccccc2[N+](=O)[O-])n1-c1ccccc1O`, the figure is -6.33%; as for `O=C(NCCc1ccccc1)c1cccs1`, 5.8%.
Consider `CC(=O)Nc1cccc(C(=O)OCC(=O)c2ccccc2Cl)c1`, for which the “hERG current change (%, negative = inhibition) at 1uM” value came to 0.186%.
Turning to `COc1cc(/C=N/NC(=O)Cc2ccccc2)ccc1Oc1ccc([N+](=O)[O-])cc1[N+](=O)[O-]`, the “hERG current change (%, negative = inhibition) at 1uM” value was determined as 7.76%.
With `CCC(C)(C(=O)NC1CCCCC1)N(C)C(=O)c1ccc2c(c1)OCO2` (stereo not drawn), the “hERG current change (%, negative = inhibition) at 1uM” value amounted to 14.1%.
Take `CCOc1ccccc1N1CCN(C(=O)c2cc(-c3cccnc3)nc3c(Cl)cccc23)CC1`: the “hERG current change (%, negative = inhibition) at 1uM” value is 13.4%.
As to `COCc1nnc(NC(=O)c2ccc(S(=O)(=O)N(CC(C)C)CC(C)C)cc2)o1`, the “hERG current change (%, negative = inhibition) at 1uM” value is reported as 7.35%.
On to `O=C(CCC1CCCN(C(=O)c2ccoc2)C1)NCc1ccccc1F` (stereo not drawn), for which the “hERG current change (%, negative = inhibition) at 1uM” value worked out at 8.01%.
As for `Cc1ccc(S(=O)(=O)N2CCC(C(=O)O)CC2)cc1`, the “hERG current change (%, negative = inhibition) at 1uM” value was 9.7%.
`CCN(CC)c1c([N+](=O)[O-])c(=O)oc2ccccc12`: the “hERG current change (%, negative = inhibition) at 1uM” value came out at 11.2%.
Regarding `O=C(CCCC(=O)n1cnc2ccccc21)n1cnc2ccccc21`, the “hERG current change (%, negative = inhibition) at 1uM” value came out at 9.47%.
As for `Cc1nnc(SC(C)C(=O)Nc2ccc3ccccc3c2)n1C` (stereo not drawn), the figure is 7.87%; as for `O=C(Oc1ccc(-c2nnco2)cc1)N1CCCCC1`, 12.3%; as for `O=C1N=C(N2CCCCC2)SC1=C1CCCCC1`, 4.8%.
Regarding `CS(=O)(=O)N1CCc2cc(C(=O)Nc3ccc(COCC(F)(F)F)cc3)ccc21`, the “hERG current change (%, negative = inhibition) at 1uM” value is 10.4%.
Consider `Cc1csc(NC(=O)CSc2nnc(Cc3cccn3C)n2-c2ccc(F)cc2)n1`, for which the “hERG current change (%, negative = inhibition) at 1uM” value is on record as 1.54%.
`COc1ccc(CCNC(=O)C(=O)c2c(C)n(C)c3ccccc23)cc1OC`: the “hERG current change (%, negative = inhibition) at 1uM” value is 10.4%.
For `COc1cccc(/C=C/C(=O)c2ccc3c(c2)OCO3)c1OC`, the “hERG current change (%, negative = inhibition) at 1uM” value is listed as 7.33%.
As for `CCN(CC)S(=O)(=O)N1CCC(C(=O)NCCC2=CCCCC2)CC1`, the figure is 6.39%; as for `Cc1ccnc(NC(=O)CCC(=O)N(CC(=O)NCc2ccc(F)cc2)Cc2ccccc2)c1`, 0.229%.
As for `O=C1C2C3C=CC(C3)C2C(=O)N1c1ccc(-c2nc3ccccc3o2)cc1` (stereo not drawn), the figure is 9.99%.
Take `Cc1oc(C)c(C(=O)O)c1C(=O)O`: the “hERG current change (%, negative = inhibition) at 1uM” value was determined as 16.8%.
On to `CN(Cc1ccccc1)S(=O)(=O)c1ccc(NC(=O)c2ccccc2C(=O)O)cc1`, for which the “hERG current change (%, negative = inhibition) at 1uM” value is -1.92%.
As for `Cc1c(C(=O)N2CCCC2)nnn1-c1nonc1N`, the figure is 12.4%; as for `CCCNC(=O)NC(=O)COC(=O)c1oc2ccc(OCC)cc2c1C`, 2.89%; as for `O=[N+]([O-])c1ccc(/C=N/Nc2nc(-c3ccccc3)c3cc(Br)ccc3n2)o1`, 5.06%.
Regarding `COc1ccccc1NC(=O)CN1C(=O)CC(C)S(=O)(=O)c2ccccc21` (stereo not drawn), the “hERG current change (%, negative = inhibition) at 1uM” value stood at 2.08%.
Turning to `Cc1nc(Nc2ccccc2)[nH]c(=O)c1CCC(C)C`, the “hERG current change (%, negative = inhibition) at 1uM” value was 1.92%.
As for `CC(=O)Nc1cccc(NC(=O)c2cccc(-c3ccc(O)cc3)c2)c1`, the figure is 7.74%.
Take `O=C(Nc1cccc(C(F)(F)F)c1)c1cc(Br)cc2c1OCC2`: the “hERG current change (%, negative = inhibition) at 1uM” value amounted to 7.93%.
Take `O=C(NCc1cccs1)c1cccc(S(=O)(=O)N2CCCCC2)c1`: the “hERG current change (%, negative = inhibition) at 1uM” value was 2.32%.
For `CCCn1c(C)cc(=O)c2cc(NC(=O)c3ccccn3)ccc21`, the “hERG current change (%, negative = inhibition) at 1uM” value was -5.24%.
As to `CCCCOc1ccc(-c2nnn(CC(=O)NCCc3c[nH]c4ccccc34)n2)cc1`, the “hERG current change (%, negative = inhibition) at 1uM” value was -0.104%.
As for `O=C(C1CCN(S(=O)(=O)c2cccc3nsnc23)CC1)N1CCc2ccccc2C1`, the figure is 11.3%; as for `COC(=O)c1cccc(NC(=O)c2ccc3c(c2)C(=O)N(C(C)(C)C)C3=O)c1`, 17.2%; as for `CCOC(=O)c1ccc(NC(=O)c2ccc3c(c2)C(=O)N(CC2CCCO2)C3=O)cc1` (stereo not drawn), 5.17%.
Turning to `CCCCN(CCCNC(=O)c1ccc(CS(=O)(=O)c2ccc(OC)cc2)o1)Cc1ccccc1`, the “hERG current change (%, negative = inhibition) at 1uM” value is listed as -17.1%.
`N=c1c(C(=O)NCC2CCCO2)cc2c(=O)n3ccccc3nc2n1C1CCCC1` (stereo not drawn): the “hERG current change (%, negative = inhibition) at 1uM” value is given as -72.2%.
As for `COCCNC(=O)C(OC(=O)c1ccco1)c1ccccc1Cl` (stereo not drawn), the figure is 11.8%; as for `Cc1nc(C(=O)N2CCCC(C(=O)c3cccc(OC(C)C)c3)C2)cs1` (stereo not drawn), 5.24%; as for `Cc1cc(C)nc(SCC(=O)c2ccc(C)c(C)c2)n1`, 10.1%.
Regarding `CC(=O)N1C(=S)NC(=O)/C1=C1/C(=O)N(CC(=O)Nc2cccc(C)c2)c2ccccc21`, the “hERG current change (%, negative = inhibition) at 1uM” value is recorded as 14.7%.
Regarding `CN1CCN(c2ccc(Nc3ccnc4cc(Cl)ccc34)cc2)CC1`, the “hERG current change (%, negative = inhibition) at 1uM” value is given as 9.22%.
As for `O=c1c2ccccc2nc(/C=C/c2ccccc2)n1-c1ccc(O)cc1`, the figure is 10.6%; as for `Cc1ccsc1/C=N/NC(=O)c1cccnc1`, 12.5%.
`Cc1nn(C(C)C(=O)NCCCN2CCCCC2C)c(=O)c2c1sc1ccccc12` (stereo not drawn): the “hERG current change (%, negative = inhibition) at 1uM” value is on record as 10.2%.
`Cc1c(-c2ncn[nH]2)sc(C#N)c1-c1ccccc1`: the “hERG current change (%, negative = inhibition) at 1uM” value is 8.5%.
Regarding `O=C(CSc1nnc(COc2ccc(Cl)cc2Cl)o1)Nc1ccccn1`, the “hERG current change (%, negative = inhibition) at 1uM” value is reported as 5.29%.
As to `Cc1ccc(C=Nc2ccccc2C#N)s1`, the “hERG current change (%, negative = inhibition) at 1uM” value was 7.12%.
As for `CCc1ccc(NC(=O)C2C3C=CC(C4CC34)C2C(=O)O)cc1` (stereo not drawn), the figure is 2%; as for `O=C(NCC1CCCO1)c1ccc(CNS(=O)(=O)c2ccc(F)c(Cl)c2)cc1` (stereo not drawn), 3.89%.
As for `CC#CCCCC(=O)Nc1ccccc1C(=O)O`, the “hERG current change (%, negative = inhibition) at 1uM” value is given as -0.409%.
As for `Cc1csc(NS(=O)(=O)c2cccc([N+](=O)[O-])c2)n1`, the figure is 7.58%.
Regarding `CCC1=C(OC(=O)N(CC)CC)N2C(=O)OC(=NCC(=O)OC)[C@]2(Cc2ccccc2)[C@H]2C1=CC[C@H]1C(=O)N(C)C(=O)[C@H]12`, the “hERG current change (%, negative = inhibition) at 1uM” value was 10.4%.
As for `COCCN1C(=O)C(CC(=O)Nc2ccc(C(=O)O)cc2)SC1=Nc1ccccc1` (stereo not drawn), the “hERG current change (%, negative = inhibition) at 1uM” value was determined as 10.8%.
`O=C(NCCC1CCCC1)C1CCC(=O)N(CCCN2CCCC2=O)C1` (stereo not drawn): the “hERG current change (%, negative = inhibition) at 1uM” value is listed as 23.5%.
Regarding `O=C(O)C1(NS(=O)(=O)c2ccc(Cl)cc2)CCCCC1`, the “hERG current change (%, negative = inhibition) at 1uM” value came to 1.41%.
On to `CC(C)C(=O)Nc1ccc(C(=O)NN2C(=O)c3ccccc3C2=O)cc1`, for which the “hERG current change (%, negative = inhibition) at 1uM” value is listed as 11%.
As for `COc1cccc2cc(C(=O)N(C)C3CCN(C)CC3)c(=O)oc12.Cl`, the figure is 5.55%; as for `COC(=O)CCCC1=CC2=CC(=O)C(C)(OC(=O)c3cccs3)C(=O)C2=CN1Cc1ccco1` (stereo not drawn), -1.36%; as for `O=C(NNC1=C(C(=O)C(F)(F)F)CCC1)c1ccccc1Cl`, 10.6%.
As for `CCN(CC(=O)Nc1ccc(OC)cc1)C(=O)c1ccc(N2C(=O)CCC2=O)cc1`, the figure is 10.2%.
As for `O=C(c1cc(Br)ccc1Cl)N1CCN(c2ncccn2)CC1`, the “hERG current change (%, negative = inhibition) at 1uM” value stood at 13%.
As for `COc1ccc(CCNC(=O)c2ccc(Cl)cc2Cl)cc1`, the figure is 11.4%; as for `Cc1cccc(NC(=O)CSc2nnc(-c3ccco3)o2)c1C`, 2.07%.
On to `CCOc1ccc(C(=O)Nc2ccc(NC(=O)c3ccccc3)cc2)cc1Br`, for which the “hERG current change (%, negative = inhibition) at 1uM” value amounted to 9.45%.
Consider `OC1CCCN(C(=S)Nc2ccc(SC(F)F)cc2)C1` (stereo not drawn), for which the “hERG current change (%, negative = inhibition) at 1uM” value is 4.95%.
As for `CN1CCC(N(C)CC(=O)Nc2ccccc2N2CCOCC2)CC1.O=C(O)C(=O)O`, the “hERG current change (%, negative = inhibition) at 1uM” value worked out at 1.71%.
As for `CCn1cc(C(=O)NCCC(C)C)c(=O)c2cc(F)c(N3CCN(C(=O)c4ccco4)CC3)cc21`, the figure is 9.17%; as for `O=C1CCCc2c1[nH]c1ccc(Cl)cc21`, 13.8%.
Turning to `O=C(CCNS(=O)(=O)c1cccs1)NCc1ccccc1`, the “hERG current change (%, negative = inhibition) at 1uM” value was 39.7%.
As to `O=C(CSc1nc2c(cnn2-c2cccc(Cl)c2)c(=O)[nH]1)NCC1CCCO1` (stereo not drawn), the “hERG current change (%, negative = inhibition) at 1uM” value came to 7.6%.
As to `CC(C)c1ccc(NC(=O)NCc2ccc(F)cc2)cc1`, the “hERG current change (%, negative = inhibition) at 1uM” value was found to be 12.9%.
Turning to `Cc1ccc(NC(=O)CCCc2nc3ccccc3s2)c(O)c1`, the “hERG current change (%, negative = inhibition) at 1uM” value was 3.79%.
In the case of `CCn1nc(C)c(CN2CCC(n3nccc3NC(=O)c3ccc4c(c3)OCO4)CC2)c1C`, the “hERG current change (%, negative = inhibition) at 1uM” value was found to be 0.427%.
Consider `COc1cc(C2OC(=O)c3ccccc3S2)cc(OC)c1OC` (stereo not drawn), for which the “hERG current change (%, negative = inhibition) at 1uM” value stood at 11.9%.
In the case of `Cc1cccnc1NC(=O)CNC(=O)C12CC3CC(CC(C3)C1)C2`, the “hERG current change (%, negative = inhibition) at 1uM” value stood at 3.55%.
As for `COc1ccc(N2CCN(c3ccc([N+](=O)[O-])nc3)CC2)cc1`, the figure is -4.82%.
Take `Cc1cc(Oc2nc3c(C)cccn3c(=O)c2/C=C(\C#N)S(=O)(=O)c2ccc(Cl)cc2)ccc1Cl`: the “hERG current change (%, negative = inhibition) at 1uM” value is listed as 4.5%.
As to `COC(=O)CC1C(=O)NCCN1C(=O)CSc1nnnn1-c1ccc(OC)cc1` (stereo not drawn), the “hERG current change (%, negative = inhibition) at 1uM” value amounted to 11%.
For `CCCCN(CC)CCCNC(=S)Nc1ccc2nc(N3CCN(CC)CC3)cc(C)c2c1`, the “hERG current change (%, negative = inhibition) at 1uM” value came out at 5.31%.
With `COc1ccc(-c2csc(CCn3nc(C)cc3C)n2)cc1OC`, the “hERG current change (%, negative = inhibition) at 1uM” value amounted to 10.4%.
